Values joined by “and” are separate entries in the source; they are usually repeats but may differ in a detail not shown here. Identical values can stand only once. Hit rate of the full screen: of about 360,000 compounds, about 6,000 (1.7%) were called active. The inconclusive results got no clear call from the source; some entries with a clear call stand among them for comparison. Calls follow the shape of the dose curve; as a rule, active = well fitted cell-killing curve with a large enough effect; inconclusive = small, poorly fitted or top-dose-only effect, or effect the other way; inactive = flat fitted curve, though single readings scatter. Potencies of inconclusive entries are doubtful fits and often do not repeat.
Test: qHTS for induction of synthetic lethality in tumor cells producing 2HG: qHTS for the HT-1080-NT fibrosarcoma cell line;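 also: NT is the 2HG producing partner of a matched IDH1 knockdown line; nearly all actives have a fitted effect of over 55% in size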;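 as to activity, negative = less viability: 0% = DMSO-treated cells and -100% = media-only wells without cells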
Details: HT-1080-NT fibrosarcoma viability, CellTiter-Glo ATP luminescence, 48 h; activity, negative = less viability: at 46.1 µM (top of the series) unless noted
Summary of the method: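 Viability by CellTiter-Glo luminescence after 48 h compound exposure at 37C of HT-1080-NT cells (750/well, RPMI, 5% FBS). % activity scaled between DMSO wells and medium-only wells, then curve-fitted and categorized by curve class.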
Potency is read from the fitted curve at half-maximal effect; tags tell the direction and shape of the fitted curve.

| Compound | Potency | activity, negative = less viability |
| --- | --- | --- |
| Cc1ccc(C(=O)c2ccc(C)cc2)cc1 | inactive | – |
| COc1ccc(-c2cc3nc(NCc4ccc(NC(C)=O)cc4)n(C)c(=O)c3s2)cc1OC | inactive | – |
| OC(c1ccccc1)(c1nc(-c2csc3ccccc23)cs1)C(F)(F)F (stereo unspecified) | inconclusive: 20.6 µM [cytotoxic, single point] | – |
| Cc1ccc(-c2csc(NC(=O)C3=NN(c4ccccc4)C(=O)CC3)n2)cc1 | inconclusive: 18.4 µM [cytotoxic, single point] | – |
| N#CN(CC(N)=O)c1nc(N2CCCCC2)nc(N2CCCCC2)n1 | inconclusive: 18.4 µM [cytotoxic, single point] | – |
| Cc1ccn(CC(=O)N2CCCC(N3CCN(Cc4ccc5c(c4)OCO5)CC3)C2)n1 (stereo unspecified) | inactive | – |
| C[C@@H]1CC=C[C@H]2[C@H]1C(=O)N(Cc1ccccc1)[C@H]2c1ccc(-c2ccc(N(C)C)cc2)cc1F | inconclusive: 29.1 µM [cytotoxic, single point] | – |
| CC(C)C[C@@H]1O[C@H](CCc2ccccc2)CC2=C1C(=O)OC(C)(C)O2 | inconclusive: 29.1 µM [cytotoxic, single point] and inconclusive: 32.6 µM [cytotoxic, single point] | – |
| CC1(C)CC(=O)C=C(c2ccc(-c3ccc(S(C)(=O)=O)cc3)cc2)C1=O | inactive | – |
| COc1cc2c(NC3CCN(C)CC3)nc(N3CCCN(C)CC3)nc2cc1OCc1ccccc1 | active: 10 µM | – |
| O=C(/C=C/c1ccc(Br)cc1)c1ccc(NC2=NCCCS2)cc1 | inconclusive: 29.1 µM [cytotoxic, single point] | – |
| CC(C)(C)n1nnnc1C(c1cccnc1)N1CCN(c2cccc(C(F)(F)F)c2)CC1 (stereo unspecified) | inactive | – |
| CCOc1ccccc1N1CC(O)=C(c2nc3ccccc3s2)C1=N | active: 2.82 µM | – |
| CCNC(=S)N1CCC(C(N)=O)CC1 | inactive | – |
| CN1CCN(C(=O)CCCN2C(=O)/C(=C/c3cccc(Br)c3)SC2=S)CC1 | inconclusive: 29.1 µM [cytotoxic, single point] | – |
| CC(Nc1nc(N2CCN(CCO)CC2)nc2ccccc12)c1ccccc1 (stereo unspecified) | inconclusive: 25.9 µM [cytotoxic, single point] | – |
| CCC(C)(C)NC(=O)C(C(C)C)N(CC1CCCO1)C(=O)CNS(=O)(=O)c1ccc(F)cc1 (stereo unspecified) | inactive | – |
| O=Nc1c(O)n(Cc2ccc(Cl)cc2)c2ccccc12 | inconclusive: 32.6 µM [cytotoxic, single point] | – |
| O=C(O)C(CO)N=Cc1c(O)c2ccccc2oc1=O (stereo unspecified) | inconclusive: 25.9 µM [cytotoxic, single point] | – |
| COc1ccc(-c2csc(NC(=O)CN3C(=O)C4CCCCC4C3=O)n2)c(OC)c1 (stereo unspecified) | inconclusive: 29.1 µM [cytotoxic, single point] | – |
| O=C(/C=C/c1ccc(Cl)cc1)NCCN1CCOCC1 | inactive | – |
| Nc1nonc1C(=O)NCCNCc1c(OCc2ccccc2F)ccc2ccccc12 | inconclusive: 35.5 µM [cytotoxic, single point] | – |
| NC(=O)N1CCN(CCCN2c3ccccc3Sc3cc(Cl)ccc32)CC1 | inconclusive: 32.6 µM [cytotoxic, single point] | – |
| CC(C)c1ccc(-c2nnc(N)s2)cc1 | inconclusive: 23.1 µM [cytotoxic, single point] | – |

| Compound | Potency | activity, negative = less viability |
| --- | --- | --- |
| COc1ccc(C2/C(=C(\O)c3cccc(OC)c3)C(=O)C(=O)N2c2ccccn2)cc1 (stereo unspecified) | inconclusive: 29.1 µM [cytotoxic, single point] | – |
| O=C(NCc1ccccn1)c1cccc(NS(=O)(=O)c2ccc(Br)cc2)c1 | – | inactive: 3.54% [at 9.24 µM] |
| C/C(=N\NC(=O)CNC(=O)C(c1ccccc1)c1ccccc1)c1ccc(C(C)(C)C)cc1 | inconclusive: 25.9 µM [cytotoxic, single point] | – |
| CCN1CCN(Cc2ccc(OCc3ccccc3)cc2)CC1 | inconclusive: 31.6 µM [cytotoxic, single point] | – |
| O=C(Oc1ccccc1Cl)c1ccccc1 | inactive | – |
| CC(C)NC(=S)N1CCn2c(nc3ccccc32)C1 | inconclusive: 20.6 µM [rising, single point] | – |
| Cc1cc(C)cc(NS(=O)(=O)c2ccc(NC(=S)NC(=O)c3cccs3)cc2)c1 | inconclusive: 23.1 µM [cytotoxic, single point] | – |
| CCn1c(=O)c(=O)[nH]c2cc(C(=O)NC3CCCc4ccccc43)ccc21 (stereo unspecified) | inconclusive: 20.6 µM [cytotoxic, single point] | – |
| COc1ccc(N(CC(=O)Nc2cc(Cl)ccc2C)S(=O)(=O)c2c(C)noc2C)cc1 | active: 5.8 µM | – |
| Cc1cc(NCc2ccccn2)n2nc(C)c(-c3ccccc3)c2n1 | inconclusive: 23.1 µM [cytotoxic, single point] | – |
| CCCCCCSc1cc(-c2nc3cc(C)ccn3c2NCCCC)ccc1OC | active: 25.9 µM | – |
| O=C(C=Cc1ccccn1)c1ccccc1 | inconclusive: 29.1 µM [cytotoxic, single point] | – |
| Cc1csc2c(N3CCN(C(=O)Nc4ccc(OC(F)(F)F)cc4)CC3)ncnc12 | inconclusive: 29.1 µM [cytotoxic, single point] | – |
| Cc1nc2c(OCc3cccc(Cl)c3)cccn2c1N(C)CC1CC1 | inconclusive: 29.1 µM [cytotoxic, single point] | – |
| CCCCCCCCn1cnc2c(N)c(C)c(C)cc21 | inconclusive: 25.1 µM [cytotoxic, single point] | – |
| N#Cc1nccnc1S(=O)(=O)c1cccs1 | active: 20.6 µM | – |
| O=C(C[n+]1cc2ccccc2c2ccccc21)c1ccccc1 | inconclusive: 16.4 µM [cytotoxic, partial curve, poor fit] | – |
| Cc1nnc(-c2ccc(Oc3ccc(Cl)cc3)c([N+](=O)[O-])c2)o1 | inactive | – |
| OC1(c2ccccc2)CN(c2ccccc2)C2=[N+]1CCS2 (stereo unspecified) | inactive | – |
| CCC(=O)N(CCC1(C(C)C)CCOC(C)(C)C1)Cc1ccco1 (stereo unspecified) | inactive | – |
| NC(=O)c1c(NC(=O)c2cccs2)sc2c1CCCCCC2 | inconclusive: 35.5 µM [cytotoxic, single point] | – |
| COc1ccc2c(c1)C(CC(C)=O)N(c1ccc(-c3cccnc3)cc1)C(c1ccsc1)=C2 (stereo unspecified) | inactive | – |
| COc1cc2c(cc1OC)C(c1cc(Br)ccc1O)N(C(C)=O)CC2 (stereo unspecified) | inactive | – |
| CN1C(=O)c2ccccc2Sc2ccc(NC(=O)NC3CC3)cc21 | inactive | – |

| Compound | Potency | activity, negative = less viability |
| --- | --- | --- |
| CC(C)Cc1nnc(NC(=O)CCC(=O)N2CCN(Cc3ccccc3)CC2)s1 | inconclusive: 18.4 µM [rising, single point] | – |
| NC(=O)c1ccccc1O | inconclusive: 0.461 µM [rising, full curve, poor fit] | – |
| CC1CCN(C(=O)C2CCN(c3ncnc4c3nc3n4CCCCC3)CC2)CC1 | inconclusive: 29.1 µM [cytotoxic, single point] | – |
| S=C(NCCc1ccccc1)Nc1ccccc1 | inconclusive: 0.461 µM [cytotoxic, full curve, poor fit] | – |
| Cc1ccc(N/C(N)=N/c2nc(C)cc(N3CCCCC3)n2)c(C)c1 | active: 14.6 µM | – |
| COc1ccc(-c2csc(Nc3ccc(C)cn3)n2)cc1OC | inconclusive: 29.1 µM [cytotoxic, single point] | – |
| Cc1cc(OC(C)C)nc(NCc2ccccc2)n1 | inconclusive: 11.6 µM [cytotoxic, partial curve] | – |
| CCc1ccc(OC)c(S(=O)(=O)Nc2ccc(Cc3ccncc3)cc2)c1 | inconclusive: 23.1 µM [cytotoxic, partial curve, poor fit] | – |
| CCCC/C(C)=N/NC(=O)c1cn(-c2ccccc2)nc1-c1ccccc1 | inconclusive: 20.6 µM [cytotoxic, partial curve] | – |
| O=C(NCC1CC1)c1ccc2c(c1)S(=O)(=O)c1cc(Cl)ccc1C2=O | inactive | – |
| O=C(Nc1cccc2ncccc12)c1ccc(-c2ccc(Br)cc2)o1 | inconclusive: 17.8 µM [cytotoxic, single point] | – |
| COC(=O)[C@@]1(Cc2ccc(F)cc2)[C@H]2c3cc(C(=O)N(C)C)n(Cc4ccc(Cl)c(C(F)(F)F)c4)c3C[C@H]2CN1C(=O)c1ccccc1 | inconclusive: 23.1 µM [cytotoxic, single point] | – |
| O=C(Nc1ccc(C(F)(F)F)cc1)C1CCN(c2cnccn2)CC1 | inconclusive: 18.4 µM [cytotoxic, single point] | – |
| FC(F)C(F)(F)C1=CC(c2cccs2)=NCCN1 | inconclusive: 0.0092 µM [rising, full curve] | – |
| O=C(C1=C[C@@H](c2ccc(Br)cc2)C[C@@H](OCCCCO)O1)N1CCN(Cc2ccc3c(c2)OCO3)CC1 | inactive | – |
| O=C(CN1CCC(C(=O)c2ccc(F)cc2)CC1)Nc1ccccc1 | inconclusive: 11.2 µM [cytotoxic, single point] | – |
| CC1CCC(Nc2nnnn2-c2ccccc2)CC1 (stereo unspecified) | inconclusive: 12.6 µM [cytotoxic, single point] | – |
| Cc1cc(-c2nsc(=O)o2)c(S(C)(=O)=O)s1 | inactive | – |
| CC(=O)NCCNC(=O)c1ccc(NC2=NC3CS(=O)(=O)CC3S2)cc1 (stereo unspecified) | inconclusive: 25.9 µM [rising, single point] | – |
| C=CCN=c1scc(-c2ccccc2)n1/N=C/c1ccccn1 | active: 18.4 µM | – |
| Cc1ccc(-c2nc(C(=O)NCC3CCCO3)cc3c2[nH]c2ccccc23)cc1 (stereo unspecified) | inconclusive: 18.4 µM [cytotoxic, single point] | – |
| CCOC(=O)N1CCC(=C2c3ccc(Cl)cc3CCc3cccnc32)CC1 | inconclusive: 29.1 µM [cytotoxic, single point] | – |
| CCCCC(O)(CCCC)C(=O)NN(C(=O)CCl)c1ccccc1 | inconclusive: 23.1 µM [cytotoxic, single point] | – |
